{"source": "paper PMC8190280", "about": "“Structure and mechanism of the human NHE1-CHP1 complex” (Nature Communications, 2021)", "target": "the molecule itself", "assay": "cryo-EM structure; NHE1-CHP1^Na/7.5: co-expressed and co-purified complex in MSP1D1/POPC nanodiscs, 150 mM NaCl, pH 7.5; 3.3-Å map focused on the NHE1 TMD; CHP1 not resolved", "data": [{"protein": "human sodium/proton exchanger 1 (NHE1) (natural protein, human NHE1 (SLC9A1), 815 amino-acid residues, […]; cDNA amplified from an HEK293 cDNA library; model built for […] only; residues of the cleavage site may remain at the C-terminus; The sample migrated as core- and fully glycosylated forms (~95 and ~110 kDa); the true N-terminus was not determined; also called SLC9A1; Na+/H+ exchanger 1; source: HEK293F cells (BacMam baculovirus), co-expressed …) not shown", "values": [{"measurement": "stoichiometry N", "result": 2}]}]}
